Hit rate of the full screen: of about 280,000 compounds, about 1,100 (0.39%) were called active. This list was built around the results that the source calls inconclusive (neither active nor inactive); the mix of calls is not that of the screen. Calls follow the shape of the dose curve; as a rule, active = well fitted inhibition curve with a large enough effect; inconclusive = small, poorly fitted or top-dose-only effect, or effect the other way; inactive = flat fitted curve, though single readings scatter. No potency is given beside an inconclusive call; the fits are too rough.
What follows are compounds tested against Microtubule-associated protein tau (Homo sapiens) (UniProt P10636) (assay: qHTS for Inhibitors of Tau Fibril Formation, Fluorescence Polarization). Details: K18 P301L tau heparin fibrillization, Alexa594 FP, 6 h; series mostly up to 57.7 µM.
UniProt P10636, sequence (P10636 whole entry, looked up): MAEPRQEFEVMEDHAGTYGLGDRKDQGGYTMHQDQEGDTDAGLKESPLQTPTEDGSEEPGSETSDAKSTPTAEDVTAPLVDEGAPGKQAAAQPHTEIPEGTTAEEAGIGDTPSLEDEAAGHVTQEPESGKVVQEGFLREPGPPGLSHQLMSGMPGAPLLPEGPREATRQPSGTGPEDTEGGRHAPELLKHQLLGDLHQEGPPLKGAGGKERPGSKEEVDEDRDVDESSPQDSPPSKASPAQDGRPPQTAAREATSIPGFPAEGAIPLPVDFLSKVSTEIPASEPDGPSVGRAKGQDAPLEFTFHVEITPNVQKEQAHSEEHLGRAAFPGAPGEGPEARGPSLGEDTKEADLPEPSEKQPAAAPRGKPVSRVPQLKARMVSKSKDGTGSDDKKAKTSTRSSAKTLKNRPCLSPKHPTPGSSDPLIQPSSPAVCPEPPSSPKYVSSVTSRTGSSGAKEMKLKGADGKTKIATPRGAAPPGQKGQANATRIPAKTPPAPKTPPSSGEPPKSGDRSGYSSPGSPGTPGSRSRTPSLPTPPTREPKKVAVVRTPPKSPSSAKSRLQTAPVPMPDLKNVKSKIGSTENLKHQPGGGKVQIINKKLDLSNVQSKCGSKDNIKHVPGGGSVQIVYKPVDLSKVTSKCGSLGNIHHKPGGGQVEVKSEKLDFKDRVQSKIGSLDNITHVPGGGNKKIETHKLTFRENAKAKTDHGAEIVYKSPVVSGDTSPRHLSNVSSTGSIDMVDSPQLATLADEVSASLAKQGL
Procedure, shortened: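 Recombinant K18 P301L […], labeled with Alexa 594 at 0.24 uM over 15 uM unlabeled; heparin inducer 20 uM final; 37 C, 6 hr; FP endpoint.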
For `Cc1c(C(=O)N2CCOCC2)oc2c1-c1nn(CC(=O)NCc3ccccc3)cc1CC2`, the Potency was “inactive”. With `COc1ccccc1CN(Cc1cc2c(C)ccc(C)c2[nH]c1=O)Cc1nnnn1Cc1ccco1` the Potency was “inactive”. `O=C(CN1CCN(Cc2ccc(Cl)cc2)CC1)N/N=C/c1c[nH]c2ccccc12` was tested, and the Potency was inconclusive [activator, full curve]. With `Cc1ccc(CN2C(=O)C3(SCC(=O)N3c3ccc(C)c(C)c3)c3ccccc32)cc1` (configuration not stated) the Potency was “inactive”. With `CCn1ncc(C2=NOC(C(=O)Nc3cccnc3)C2)c1C` (configuration not stated) the Potency was inconclusive [inhibitor, single point]. `O=C(Nc1cccc(Cl)c1)Nc1ccccc1NS(=O)(=O)c1cccs1` was tested, and the Potency was inconclusive [inhibitor, single point]. `CCOc1ccc(-c2csc(NC(=O)c3ccc(S(=O)(=O)N4CCc5ccccc5C4)cc3)n2)cc1` was tested, and the Potency was inconclusive [inhibitor, single point]. For `Cc1cccc(-n2ncc3c(NCc4ccc5c(c4)OCO5)ncnc32)c1`, the Potency was inconclusive [inhibitor, partial curve]. With `Cc1cccc(N2C(=O)C(Cl)=C(Nc3c(C)n(C)n(-c4ccccc4)c3=O)C2=O)c1C` the Potency was inconclusive [inhibitor, partial curve]. `COc1ccc(NC(=O)N2CCc3nc(-c4ccccc4)c4c(c3C2)CO[C@@H](C)C4)cc1` was tested, and the activity, negative = inhibition was inactive: -0.392% [at 11.6 µM]. For `COc1ccc(NC(=O)CCS(=O)(=O)c2cc(Br)cc3c2N(C(C)=O)CC3)c(OC)c1`, the Potency was “inactive”. For `CCN1CCN(c2ccc(N=Cc3ccc(O)cc3O)cc2)CC1`, the Potency was inconclusive [inhibitor, single point]. For `Nc1cc2nsnc2cc1Br`, the Potency was inconclusive [inhibitor, partial curve]. With `CN(C(=O)CSc1nc2ccc(NC(=O)c3ccc(F)cc3)cc2s1)c1ccccc1` the Potency was inconclusive [inhibitor, partial curve]. In the case of `COc1ccccc1OCCC(=O)OCC(=O)c1c(N)n(C)c(=O)n(C)c1=O`, the Potency is reported as “inactive”. `C=C(C)C(=O)C1CCCCC1` was tested, and the Potency was “inactive”. For `CN(C)/C=C/c1onc(-c2c(F)cccc2Cl)c1C#N`, the Potency was “inactive”. `N[C@H](Cc1ccccc1)C(=O)O` was tested, and the Potency was “inactive”. For `Cc1csc2nc(CNS(=O)(=O)c3ccc4c(c3)OCCO4)cn12`, the Potency was “inactive”. For `CC(=O)c1ccc(S(=O)(=O)N2CCC(Oc3ccc(-n4cnnn4)cc3)CC2)cc1`, the Potency was inconclusive [inhibitor, single point]. With `COc1cccc2[nH]c3c(N4CCN(Cc5ccc6c(c5)OCO6)CC4)ncnc3c12` the Potency was inconclusive [activator, single point]. In the case of `O=C(O)c1cccc(NC(=O)c2cn(-c3ccccc3)nc2-c2cc3ccccc3o2)c1`, the Potency is reported as inconclusive [inhibitor, partial curve, poor fit]. In the case of `Nc1sc2c(c1C(=O)NC1CCS(=O)(=O)C1)CCC2` (configuration not stated), the Potency is reported as inconclusive [inhibitor, full curve]. `Nc1c(O)ccc2c1C(=O)c1ccccc1C2=O` was tested, and the Potency was inconclusive [inhibitor, partial curve]. In the case of `Cc1ccc(S(=O)(=O)Oc2ccccc2/C=C2\SC(=O)NC2=O)cc1`, the Potency is reported as “inactive”. `CNc1oc(C)nc1S(=O)(=O)c1ccccc1` was tested, and the Potency was inconclusive [inhibitor, single point]. `O=C(CC(c1cccs1)N1Cc2ccccc2C1=O)Nc1ccc(Cl)cc1` (configuration not stated) was tested, and the Potency was inconclusive [inhibitor, partial curve]. In the case of `O=C(Cn1c(=O)n(Cc2ccc(C(=O)NCc3ccccc3Cl)cc2)c(=O)c2ccccc21)Nc1ccc(F)cc1`, the Potency is reported as inconclusive [inhibitor, partial curve]. For `COc1ccc(NC(=O)CN2CCN(CC(=O)Nc3ccccc3Cl)CC2)cc1`, the Potency was inconclusive [activator, partial curve, poor fit]. For `Cc1ccc(NC(=O)CCc2nc3cccnc3n2-c2ccccc2)cc1`, the Potency was inconclusive [activator, single point]. In the case of `COc1ccc(S(=O)(=O)N(CC(=O)Nc2cccnc2)c2ccccc2OC)cc1`, the Potency is reported as “inactive”. In the case of `O=C(N/N=C/c1ccc2ncccc2c1)c1cc(-c2cccs2)nc2ccccc12`, the Potency is reported as inconclusive [inhibitor, partial curve]. In the case of `CCn1cc(C(=O)NCCc2ccc(Cl)cc2)c(=O)c2cc(S(=O)(=O)N3CCOCC3)ccc21`, the Potency is reported as “inactive”. For `Cc1ccc(C)c(NC(=O)c2cc(S(=O)(=O)N3CCc4ccccc4C3)ccc2F)c1`, the Potency was inconclusive [inhibitor, full curve, poor fit]. In the case of `Fc1ccc(CNc2nc(-c3ccco3)cc(C(F)(F)F)n2)cc1`, the Potency is reported as inconclusive [inhibitor, single point]. `COc1ccc(C2C=C(c3ccc(C)cc3)Nc3c(C(=O)Nc4ccccc4)cnn32)cc1` (configuration not stated) was tested, and the Potency was inconclusive [inhibitor, partial curve]. For `CCOc1ccc(N2C(=O)c3cccnc3C2Nc2ccc(Cl)cc2)cc1` (configuration not stated), the Potency was “inactive”. `COc1ccc(Br)cc1CNC(=O)CCCn1c(=O)c2cccn2c2cccnc21` was tested, and the Potency was “inactive”. In the case of `O=S(=O)(c1ccc(F)cc1)n1ccc(-c2cccc(OCc3c(F)cccc3Cl)c2)n1`, the Potency is reported as inconclusive [inhibitor, single point]. In the case of `O=C(CSc1nc2ccccc2c(=O)n1-c1ccccc1F)Nc1ccc2c(c1)CCC2`, the Potency is reported as inconclusive [inhibitor, single point]. In the case of `CCOC(=O)c1c(NC(=O)C2CCCO2)sc(C)c1C` (configuration not stated), the Potency is reported as “inactive”. In the case of `O=C(CN1CCN(c2ccc(Cl)cc2)CC1)Nc1ccc(F)cc1`, the Potency is reported as inconclusive [inhibitor, single point]. With `COc1ccccc1NC(=O)Cn1c(=O)n(-c2ccccc2Cl)c(=O)c2sc3ccccc3c21` the Potency was inconclusive [inhibitor, partial curve]. For `C/C(=N\NC(=O)c1cccc(Cl)c1)C1C(=O)c2ccccc2C1=O`, the Potency was “inactive”. In the case of `Cc1cccc(-c2cc(NC(=O)c3ccccc3C)n(-c3ccccc3)n2)c1`, the Potency is reported as inconclusive [inhibitor, full curve, poor fit]. `COC(=O)c1cc2sccc2n1Cc1ccc(F)cc1` was tested, and the Potency was inconclusive [inhibitor, partial curve, poor fit]. `Cc1ccc(S(=O)(=O)/N=C2\SC(CC(=O)Nc3ccc(F)cc3)C(=O)N2c2ccccc2)cc1` (configuration not stated) was tested, and the Potency was “inactive”. In the case of `Cc1nc(NC(=O)c2cc3c(C)nn(-c4ccccc4)c3s2)sc1C(=O)Nc1ccccc1`, the Potency is reported as inconclusive [inhibitor, partial curve, poor fit]. `Cc1ccc(N2C(=O)SC(Cc3ccccc3)C2=O)cc1` (configuration not stated) was tested, and the Potency was inconclusive [inhibitor, full curve]. In the case of `O=C(Nc1ccc(F)c(Cl)c1)C1CCCN(c2ncnc3onc(-c4ccc(F)cc4)c23)C1` (configuration not stated), the Potency is reported as inconclusive [inhibitor, partial curve]. With `CN1CCN(S(=O)(=O)c2ccc3[nH]cc(C(=O)O)c(=O)c3c2)CC1` the Potency was inconclusive [inhibitor, single point]. In the case of `Cc1cc(SCC(=O)Nc2cccc(S(=O)(=O)NC3=NCCCCC3)c2)c(C)cc1Br`, the Potency is reported as inconclusive [inhibitor, single point]. `COC(=O)c1c(NC(=O)c2ccc(C)cc2)sc(Cc2ccccc2)c1C` was tested, and the Potency was inconclusive [inhibitor, full curve, poor fit]. In the case of `CC(C)c1ccc(NS(=O)(=O)c2ccc3[nH]cc(C(=O)NC4CCCC4)c(=O)c3c2)cc1`, the Potency is reported as active: 11.2 µM. For `Cc1ccc(C(c2nnnn2CCc2ccccc2)N2CCC(C)CC2)cc1` (configuration not stated), the Potency was “inactive”. In the case of `O=C(COc1ccc(S(=O)(=O)NC2CCCCC2)cc1)N1CCN(c2cccc(Cl)c2)CC1`, the Potency is reported as “inactive”. For `Cc1cc(C(=O)N/N=C/c2cccs2)n[nH]1`, the Potency was inconclusive [inhibitor, single point]. With `COC(=O)c1ccc(COc2ccc(/C=C(\C#N)c3nc4ccccc4[nH]3)cc2OC)o1` the Potency was inconclusive [inhibitor, full curve]. For `O=C(NCc1ccco1)c1ccc2c(c1)N(Cc1ccccc1)CCS2`, the Potency was inconclusive [activator, partial curve]. In the case of `Cc1ccccc1CNC(=O)c1ccc(NC(=O)c2nsc3ccccc23)cc1`, the Potency is reported as inconclusive [inhibitor, partial curve, poor fit]. For `CCN(CC(=O)NC1CCS(=O)(=O)C1)Cc1nc2c(Br)cc(Br)cc2c(=O)[nH]1` (configuration not stated), the Potency was “inactive”. In the case of `CCn1c(=O)cc(SCC(=O)Nc2ccc(C)c(F)c2)c2ccccc21`, the Potency is reported as inconclusive [inhibitor, partial curve]. In the case of `O=C(Cn1c(=O)oc2cc(S(=O)(=O)N3CCCCCC3)ccc21)Nc1cccc(C(F)(F)F)c1`, the Potency is reported as inconclusive [inhibitor, partial curve]. `CC(NC(=O)CN(C)S(=O)(=O)c1cnc[nH]1)c1ccccc1` (configuration not stated) was tested, and the Potency was “inactive”. For `Cc1cc(C)cc(NC(=O)CCCSc2nc3ccccc3[nH]2)c1`, the Potency was inconclusive [inhibitor, single point]. `CCOc1ccccc1C1CC(=O)NC2=C1C(=O)CC(C)(C)C2` (configuration not stated) was tested, and the Potency was “inactive”. In the case of `CN(C)C(=O)/C(C#N)=C\c1cc(Br)c(Sc2ccc(Cl)cc2)o1`, the Potency is reported as inconclusive [inhibitor, single point].

Reference: PubChem BioAssay AID1468 (National Center for Advancing Translational Sciences (NCATS), 2008)
% is scaled to controls: 0 for no effect and ±100 for the full control effect; potency is read from the fitted curve at half-maximal effect; tags tell the direction and shape of the fitted curve.
Also: nearly all actives have a fitted effect of over 55% in size.
